# Several values for one entry are separate records, joined by “and”; a condition that tells them apart may be missing. Identical values can stand only once. This continues a long series; more values of the same kind are listed elsewhere.
# Key:
# Assay type in all cases: cell-based
# GluN1a wt/ GluN2B F194A = GluN1a wt/ GluN2B F194A (Rattus norvegicus, UniProt P35439+Q00960, F194A); assay: TEVC recording in X. laevis oocytes, GluN2B mutant screening; conditions: GluN1-1a GluN2B F194A, compound concentration 30 μM, single oocytes
# Description: (§1) Single point mutations were incorporated into template DNA (GluN1-1b wt/ pSGEM and GluN2B wt/ pSGEM) by using the QuikChange II XL site-directed mutagenesis kit (Agilent Technologies, Germany). Mutagenesis primers were designed using the QuikChange Primer Design Program (Agilent) and provided by Microsynth (Microsynth AG, Balgach, Switzerland). For mutation of the desired amino acid in the gene, PCR amplification was performed with the respective mutagenesis primers (Eppendorf MasterCycler Gradient, Eppendorf Hamburg, Germany). Mutations were verified by automated DNA sequencing. Constructs were linearized with PacI (GluN1) or NheI (GluN2B). cRNA was prepared byin vitrotranscription using the mMessage mMachine T7 kit (Life Technologies, Darmstadt, Germany).
# (§2) The NMDAR was expressed in stage V and VI oocytes originated from X. laevis. Oocytes were provided by Ecocyte Bioscience (Dortmund, Germany), and equimolar amounts of wild-type and mutated GluN1 and GluN2B cRNA were injected (0.8 ng each). The oocytes were incubated in Barth’s solution, containing (mmol l^−1): 88 NaCl, 1 KCl, 0.4 CaCl2, 0.33 Ca(NO3)2, 0.6 MgSO4, 5 TRIS–HCl, 2.4 NaHCO3, supplemented with 80 mg l^−1 theophylline, 63 mg l^−1 benzylpenicillin, 40 mg l^−1 streptomycin, and 100 mg l^−1 gentamycin and maintained at 18 °C until usage. After injection, the oocytes were incubated for 5 days at 18 °C. Subsequently, the activity of the expressed NMDARs in the oocytes was recorded by two-electrode voltage clamp (TEVC).
# (§3) The compounds were retrieved as 10 mM stock solutions in DMSO and were subsequently diluted with agonist solution and adjusted to 0.1% DMSO concentration. Inhibition of each compound was measured via TEVC in X. laevis oocytes at room temperature using a Turbo Tec 10CX amplifier (NPI electronic, Tamm, Germany), NI USB 6221 DA/AD Interface (National Instruments, Austin, USA), and GePulse Software (Dr. Michael Pusch, Genova, Italy). Ba^2+-Ringer, consisting of 10 mM HEPES, 90 mM NaCl, 1 mM KCl, and 1.5 mM BaCl2, adjusted to pH 7.4, was used for TEVC measurements. Agonist solution containing 10 µM glycine and 10 µM (S)-glutamate was prepared in Ba^2+-Ringer, and the measurements were performed at a holding potential of − 70 mV, using electrodes with a glass capillary filled with 3 M KCl and a resistance between 0.5 and 1.5 MΩ. The compounds were tested by applying ascending concentrations, ranging from 1 to 30,000 nM, in at least six oocytes. Example traces for all recorded conditions can be found in Supplementary Figs. S2–S9.
# (§4) TEVC data were analyzed using Ana (Dr. Michael Pusch, Genova, Italy), and statistics were performed using OriginPro 2020 (OriginLab Corporation, Northampton, USA). The inhibitory effect of each compound is calculated using the following equation: inhibition=1-Ic-Ih/Ia-Ih where Ih describes the current in the absence of agonists; Ia represents the steady-state current in the presence of the agonists; and Ic is defined as the steady-state after binding of agonist and compound. All dose response curves are fitted to the following logistic equation: y=A1-A2/1+x/x0^p+A2 where A1 describes the minimal inhibition of a compound and was set to 0; A2 represents the maximal inhibition of a compound; p is the slope of the curve; x0 is defined as the concentration at half-maximal inhibition; and x is the tested concentration. Data were statistically analyzed by one-way ANOVA and Tukey post-hoc mean comparison test in OriginPro 2020 (OriginLab Corporation, Northampton, USA). p values are indicated by * for p < 0.05, ** for p < 0.01, and *** for p < 0.001.
# [1] = biological target: GluN1b wt/ GluN2B N192A/F194A (Rattus norvegicus, UniProt P35439+Q00960, F194A/N192A); assay: as above; conditions: GluN1-1b GluN2B N192A/F194A, single oocytes
# Description: as §1, §2, §3, §4
# GluN1b wt/ GluN2B Q110A = GluN1b wt/ GluN2B Q110A (Rattus norvegicus, UniProt P35439+Q00960, Q110A); assay: as above; conditions: GluN1-1b/Q110A, single oocytes
# Description: as §1, §2, §3, §4
# GluN1b wt/ GluN2B F114A = GluN1b wt/ GluN2B F114A (Rattus norvegicus, UniProt P35439+Q00960, F114A); assay: as above; conditions: GluN1-1b/F114A, single oocytes
# Description: as §1, §2, §3, §4
# GluN1b wt/ GluN2B F194A = GluN1b wt/ GluN2B F194A (Rattus norvegicus, UniProt P35439+Q00960, F194A); assay: as above; conditions: GluN1-1b GluN2B F194A, single oocytes
# Description: as §1, §2, §3, §4
# GluN1b wt/ GluN2B N192A = GluN1b wt/ GluN2B N192A (Rattus norvegicus, UniProt P35439+Q00960, N192A); assay: as above; conditions: GluN1-1b GluN2B N192A, single oocytes
# Description: as §1, §2, §3, §4
# GluN1b wt/ GluN2B E236A = GluN1b wt/ GluN2B E236A (Rattus norvegicus, UniProt P35439+Q00960, E236A); assay: as above; conditions: GluN1-1b/E236A, single oocytes
# Description: as §1, §2, §3, §4
# GluN1b wt/ GluN2B F176A = GluN1b wt/ GluN2B F176A (Rattus norvegicus, UniProt P35439+Q00960, F176A); assay: as above; conditions: GluN1-1b/F176A, compound concentration 0.1 μM, single oocytes
# Description: as §1, §2, §3, §4
# GluN1a wt/ GluN2B wt = GluN1a wt/ GluN2B wt (Rattus norvegicus, UniProt P35439+Q00960); assay: TEVC recording of NMDAR currents in X. laevis oocytes, inhibition by compound; conditions: fitted curve
# Description: as §2
# The compounds were retrieved as 10 mM stock solutions in DMSO and were subsequently diluted with agonist solution and adjusted to 0.1% DMSO concentration. Inhibition of each compound was measured via TEVC in X. laevis oocytes at room temperature using a Turbo Tec 10CX amplifier (NPI electronic, Tamm, Germany), NI USB 6221 DA/AD Interface (National Instruments, Austin, USA), and GePulse Software (Dr. Michael Pusch, Genova, Italy). Ba^2+-Ringer, consisting of 10 mM HEPES, 90 mM NaCl, 1 mM KCl, and 1.5 mM BaCl2, adjusted to pH 7.4, was used for TEVC measurements. […] Example traces for all recorded conditions can be found in Supplementary Figs. S2–S9. […]
# [2] = compound concentration 1 μM, 1 µM
# [3] = compound concentration 10 μM, 10 µM
# [4] = compound concentration 30 μM, 30 µM
# [5] = compound concentration 0.001 μM, 0.001 µM
# [6] = compound concentration 0.01 μM, 0.01 µM
# [7] = compound concentration 0.1 μM, 0.1 µM
# Chain of GluN1b wt/ GluN2B F176A (Q00960 27-1482 F176A, other chains not shown): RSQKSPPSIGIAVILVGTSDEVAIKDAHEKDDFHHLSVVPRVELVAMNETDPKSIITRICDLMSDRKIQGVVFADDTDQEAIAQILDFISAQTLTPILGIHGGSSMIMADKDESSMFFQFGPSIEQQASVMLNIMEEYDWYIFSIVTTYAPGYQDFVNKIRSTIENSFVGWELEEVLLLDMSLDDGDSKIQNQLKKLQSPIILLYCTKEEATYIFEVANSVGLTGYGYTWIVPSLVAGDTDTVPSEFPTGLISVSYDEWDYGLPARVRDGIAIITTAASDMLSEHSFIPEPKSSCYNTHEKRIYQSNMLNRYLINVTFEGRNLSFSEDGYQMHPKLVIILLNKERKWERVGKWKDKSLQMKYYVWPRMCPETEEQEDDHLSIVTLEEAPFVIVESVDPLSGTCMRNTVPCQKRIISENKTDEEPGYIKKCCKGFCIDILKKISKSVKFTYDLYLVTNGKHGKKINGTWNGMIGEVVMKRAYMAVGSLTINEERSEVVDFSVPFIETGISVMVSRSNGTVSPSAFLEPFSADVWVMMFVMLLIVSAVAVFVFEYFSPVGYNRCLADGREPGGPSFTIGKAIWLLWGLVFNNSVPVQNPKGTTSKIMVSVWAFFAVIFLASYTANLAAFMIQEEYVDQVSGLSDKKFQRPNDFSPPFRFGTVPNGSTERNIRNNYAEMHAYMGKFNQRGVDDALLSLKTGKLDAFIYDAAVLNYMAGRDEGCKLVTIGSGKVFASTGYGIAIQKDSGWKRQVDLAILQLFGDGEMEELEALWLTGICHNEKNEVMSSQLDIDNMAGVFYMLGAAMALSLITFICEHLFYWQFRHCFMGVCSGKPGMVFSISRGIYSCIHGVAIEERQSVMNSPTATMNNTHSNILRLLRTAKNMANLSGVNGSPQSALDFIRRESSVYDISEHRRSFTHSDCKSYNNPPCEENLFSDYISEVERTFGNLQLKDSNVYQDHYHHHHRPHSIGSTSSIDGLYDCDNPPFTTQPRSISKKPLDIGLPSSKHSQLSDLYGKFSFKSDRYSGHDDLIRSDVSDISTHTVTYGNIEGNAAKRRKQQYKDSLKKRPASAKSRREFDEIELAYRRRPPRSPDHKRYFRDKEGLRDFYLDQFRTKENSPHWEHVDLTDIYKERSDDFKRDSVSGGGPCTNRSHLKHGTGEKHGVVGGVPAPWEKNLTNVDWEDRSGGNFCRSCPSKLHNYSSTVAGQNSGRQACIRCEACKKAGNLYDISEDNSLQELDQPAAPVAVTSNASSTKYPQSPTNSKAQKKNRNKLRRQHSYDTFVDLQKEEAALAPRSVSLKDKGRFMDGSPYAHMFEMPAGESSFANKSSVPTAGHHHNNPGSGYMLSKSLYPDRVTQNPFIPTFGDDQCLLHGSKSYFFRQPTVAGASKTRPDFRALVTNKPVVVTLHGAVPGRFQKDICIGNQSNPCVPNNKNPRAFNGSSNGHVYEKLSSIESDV
# Chain of GluN1b wt/ GluN2B N192A/F194A (Q00960 27-1482 N192A/F194A, other chains not shown): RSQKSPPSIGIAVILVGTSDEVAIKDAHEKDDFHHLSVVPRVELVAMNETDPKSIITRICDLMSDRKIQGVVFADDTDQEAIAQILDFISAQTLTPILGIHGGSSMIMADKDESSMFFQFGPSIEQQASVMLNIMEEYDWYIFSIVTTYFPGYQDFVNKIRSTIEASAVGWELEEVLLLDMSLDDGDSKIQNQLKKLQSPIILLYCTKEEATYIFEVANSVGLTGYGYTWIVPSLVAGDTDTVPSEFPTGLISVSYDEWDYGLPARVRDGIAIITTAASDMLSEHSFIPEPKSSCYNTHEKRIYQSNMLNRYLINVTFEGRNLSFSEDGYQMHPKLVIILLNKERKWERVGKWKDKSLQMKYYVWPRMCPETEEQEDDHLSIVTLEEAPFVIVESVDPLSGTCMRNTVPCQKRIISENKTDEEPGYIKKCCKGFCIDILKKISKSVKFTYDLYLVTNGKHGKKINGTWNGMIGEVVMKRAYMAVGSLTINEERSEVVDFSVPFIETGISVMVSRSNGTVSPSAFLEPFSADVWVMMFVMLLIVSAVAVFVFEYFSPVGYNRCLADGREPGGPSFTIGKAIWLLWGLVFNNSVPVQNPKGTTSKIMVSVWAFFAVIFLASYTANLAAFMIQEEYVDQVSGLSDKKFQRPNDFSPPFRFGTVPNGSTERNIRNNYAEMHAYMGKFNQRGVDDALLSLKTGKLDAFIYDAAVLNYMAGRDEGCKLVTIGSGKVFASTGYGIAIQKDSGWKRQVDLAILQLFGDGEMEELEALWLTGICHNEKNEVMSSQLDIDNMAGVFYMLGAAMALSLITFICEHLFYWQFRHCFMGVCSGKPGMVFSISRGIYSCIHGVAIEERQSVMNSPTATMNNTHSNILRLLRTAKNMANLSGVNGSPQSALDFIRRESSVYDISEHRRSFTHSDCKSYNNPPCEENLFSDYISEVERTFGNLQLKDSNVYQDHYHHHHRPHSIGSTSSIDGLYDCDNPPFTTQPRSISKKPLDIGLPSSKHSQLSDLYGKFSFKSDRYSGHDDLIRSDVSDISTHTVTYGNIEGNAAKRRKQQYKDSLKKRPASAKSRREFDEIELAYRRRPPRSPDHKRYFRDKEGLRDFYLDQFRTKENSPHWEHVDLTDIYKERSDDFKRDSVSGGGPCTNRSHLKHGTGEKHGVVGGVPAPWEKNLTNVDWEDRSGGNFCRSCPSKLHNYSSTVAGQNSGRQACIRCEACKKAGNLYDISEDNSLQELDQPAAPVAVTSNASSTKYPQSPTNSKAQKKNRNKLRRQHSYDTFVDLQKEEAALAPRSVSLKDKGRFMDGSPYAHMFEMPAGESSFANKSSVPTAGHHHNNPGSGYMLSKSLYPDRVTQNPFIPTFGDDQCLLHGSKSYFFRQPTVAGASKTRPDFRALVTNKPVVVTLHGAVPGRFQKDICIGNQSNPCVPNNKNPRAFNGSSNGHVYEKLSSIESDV
# Chain of GluN1b wt/ GluN2B Q110A (Q00960 27-1482 Q110A, other chains not shown): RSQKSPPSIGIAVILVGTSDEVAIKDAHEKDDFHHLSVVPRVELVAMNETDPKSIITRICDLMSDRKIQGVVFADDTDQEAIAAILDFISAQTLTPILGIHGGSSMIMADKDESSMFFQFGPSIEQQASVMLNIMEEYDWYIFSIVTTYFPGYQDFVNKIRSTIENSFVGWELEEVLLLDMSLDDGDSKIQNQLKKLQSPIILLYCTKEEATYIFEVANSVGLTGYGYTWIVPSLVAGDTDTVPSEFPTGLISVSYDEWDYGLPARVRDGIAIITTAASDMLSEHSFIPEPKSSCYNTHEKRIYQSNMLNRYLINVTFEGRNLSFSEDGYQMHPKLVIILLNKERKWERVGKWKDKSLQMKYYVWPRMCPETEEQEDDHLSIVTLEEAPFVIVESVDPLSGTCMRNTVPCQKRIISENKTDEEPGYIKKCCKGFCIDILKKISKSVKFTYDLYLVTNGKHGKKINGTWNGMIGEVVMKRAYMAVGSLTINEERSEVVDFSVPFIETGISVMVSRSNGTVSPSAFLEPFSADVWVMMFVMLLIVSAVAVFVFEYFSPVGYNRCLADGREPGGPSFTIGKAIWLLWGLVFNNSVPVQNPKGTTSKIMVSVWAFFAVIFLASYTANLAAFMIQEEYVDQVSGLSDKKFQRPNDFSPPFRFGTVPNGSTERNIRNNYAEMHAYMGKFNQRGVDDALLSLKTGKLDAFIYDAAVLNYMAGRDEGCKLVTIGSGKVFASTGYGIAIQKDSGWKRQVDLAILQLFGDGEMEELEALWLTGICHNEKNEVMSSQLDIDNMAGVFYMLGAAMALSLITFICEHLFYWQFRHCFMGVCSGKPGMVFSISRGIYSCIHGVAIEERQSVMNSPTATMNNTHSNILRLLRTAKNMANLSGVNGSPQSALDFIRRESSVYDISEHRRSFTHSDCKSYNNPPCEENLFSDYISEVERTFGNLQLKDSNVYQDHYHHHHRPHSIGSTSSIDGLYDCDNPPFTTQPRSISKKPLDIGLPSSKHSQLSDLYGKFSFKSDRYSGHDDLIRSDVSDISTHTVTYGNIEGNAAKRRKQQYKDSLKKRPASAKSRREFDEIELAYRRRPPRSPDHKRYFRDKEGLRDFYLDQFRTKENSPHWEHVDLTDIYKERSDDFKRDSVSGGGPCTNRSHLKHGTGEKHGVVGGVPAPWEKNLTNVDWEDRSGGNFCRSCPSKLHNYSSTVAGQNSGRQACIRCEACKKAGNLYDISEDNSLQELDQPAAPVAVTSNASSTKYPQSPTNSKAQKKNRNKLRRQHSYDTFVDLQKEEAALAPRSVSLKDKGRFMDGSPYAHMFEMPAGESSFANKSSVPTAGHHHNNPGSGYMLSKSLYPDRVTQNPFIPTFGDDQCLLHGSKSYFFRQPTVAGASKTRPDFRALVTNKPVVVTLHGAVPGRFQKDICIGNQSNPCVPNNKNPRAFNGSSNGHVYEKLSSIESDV
structure (smiles),measurement,setting,value
Oc1ccc2c(c1)CCN(CCCCc1ccccc1F)C[C@@H]2O [(R)-OF-NB1],inhibition (%),GluN1a wt/ GluN2B F194A,62.0359% and 67.3898% and 52.2908% and 38.5354%
same,inhibition (%),[1]; [2],30.0765% and 42.645% and 32.0859% and 35.9801% and 27.5699%
same,inhibition (%),[1]; [3],41.2448% and 54.8573% and 41.8896% and 45.7586% and 40.043%
same,inhibition (%),[1]; [4],42.0541% and 55.663% and 44.525% and 48.1091% and 43.2401%
same,inhibition (%),GluN1b wt/ GluN2B Q110A; [5],0.08538% and 0.08022% and 0% and 3.773% and 0.6808%
same,inhibition (%),GluN1b wt/ GluN2B Q110A; [6],0.2135% and 0.8984% and 0.09131% and 6.386% and 0.9531%
same,inhibition (%),GluN1b wt/ GluN2B Q110A; [2],63.8847% and 47.3608% and 67.7066% and 43.0432% and 53.8678%
same,inhibition (%),GluN1b wt/ GluN2B Q110A; [3],66.196% and 77.355% and 60.3104% and 75.2702%
same,inhibition (%),GluN1b wt/ GluN2B Q110A; [4],73.5761% and 79.5313% and 72.8862% and 80.4698%
same,inhibition (%),GluN1b wt/ GluN2B F114A; [7],0% and -0.1234% and 0.05377% and 0.9122% and -0.4502% and 0.6359%
same,inhibition (%),GluN1b wt/ GluN2B F114A; [2],5.172% and 3.405% and 11.7405% and 3.985% and 6.7788% and 11.6899%
same,inhibition (%),GluN1b wt/ GluN2B F114A; [3],28.7376% and 28.152% and 41.6024% and 25.3505% and 32.7982% and 47.0166%
same,inhibition (%),GluN1b wt/ GluN2B F114A; [4],48.1467% and 50.0452% and 58.2362% and 42.0492% and 48.1566% and 68.3669%
same,inhibition (%),GluN1b wt/ GluN2B F194A; [2],30.6448% and 28.1302% and 37.6227% and 26.3279% and 28.8059% and 36.8421%
same,inhibition (%),GluN1b wt/ GluN2B F194A; [3],46.7656% and 43.0089% and 39.5783% and 50.3999% and 45.7865% and 60.0901% and 55.7315%
same,inhibition (%),GluN1b wt/ GluN2B F194A; [4],50.1328% and 48.4372% and 56.9793% and 54.2135% and 67.8468% and 62.0874%
same,inhibition (%),GluN1b wt/ GluN2B N192A; [7],11.5535% and 2.646% and 3.333% and 2.434% and 5.269%
same,inhibition (%),GluN1b wt/ GluN2B N192A; [2],58.7866% and 66.5142% and 45.098% and 64.6036% and 45.5914%
same,inhibition (%),GluN1b wt/ GluN2B N192A; [3],78.8304% and 63.5294% and 72.1836% and 63.1183%
same,inhibition (%),GluN1b wt/ GluN2B N192A; [4],82.9467% and 68.4314% and 78.1641% and 72.9032%
same,inhibition (%),GluN1b wt/ GluN2B E236A; [5],-0.7277% and -0.09897% and -3.685% and 0.09223% and -0.4964%
same,inhibition (%),GluN1b wt/ GluN2B E236A; [6],-0.02683% and -0.8697% and -0.1414% and -3.324% and 0.8432%
same,inhibition (%),GluN1b wt/ GluN2B E236A; [7],-0.3622% and -1.881% and -0.02828% and -2.8222% and 2.885%
same,inhibition (%),GluN1b wt/ GluN2B E236A; [2],34.2208% and 29.1673% and 28.2691% and 42.4638%
same,inhibition (%),GluN1b wt/ GluN2B E236A; [3],48.9705% and 53.372% and 37.1276% and 55.6127%
same,inhibition (%),GluN1b wt/ GluN2B E236A; [4],61.6968% and 66.4216% and 62.7783% and 65.1515%
same,inhibition (%),GluN1b wt/ GluN2B F176A,-0.7357% and -0.1027% and 0.02963% and 0.01807% and 0.6249% and 1.24% and 0.06543% and -1.094%
same,A2 (level of maximal inhibition),GluN1a wt/ GluN2B wt,100.5%
